Here are results for 45 molecules from PMC4336329 (PLoS ONE, 2015).

Each structure is given as a SMILES string. Screen size: about 310,000 compounds; about 14,000 (4.5%) showed an effect of 50% or more. The effect is printed as a negative number. The list shows a part of the results.
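Also: peak tail current of the secondary pulse compared with the same well before compound.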

For this assay, the target named is human ether-à-go-go-related gene (hERG) potassium channel (human, UniProt Q12809). Kind of assay: primary screen, population patch clamp on CHO cells stably expressing hERG.
human ether-à-go-go-related gene (hERG) potassium channel, sequence (Q12809 whole entry, looked up): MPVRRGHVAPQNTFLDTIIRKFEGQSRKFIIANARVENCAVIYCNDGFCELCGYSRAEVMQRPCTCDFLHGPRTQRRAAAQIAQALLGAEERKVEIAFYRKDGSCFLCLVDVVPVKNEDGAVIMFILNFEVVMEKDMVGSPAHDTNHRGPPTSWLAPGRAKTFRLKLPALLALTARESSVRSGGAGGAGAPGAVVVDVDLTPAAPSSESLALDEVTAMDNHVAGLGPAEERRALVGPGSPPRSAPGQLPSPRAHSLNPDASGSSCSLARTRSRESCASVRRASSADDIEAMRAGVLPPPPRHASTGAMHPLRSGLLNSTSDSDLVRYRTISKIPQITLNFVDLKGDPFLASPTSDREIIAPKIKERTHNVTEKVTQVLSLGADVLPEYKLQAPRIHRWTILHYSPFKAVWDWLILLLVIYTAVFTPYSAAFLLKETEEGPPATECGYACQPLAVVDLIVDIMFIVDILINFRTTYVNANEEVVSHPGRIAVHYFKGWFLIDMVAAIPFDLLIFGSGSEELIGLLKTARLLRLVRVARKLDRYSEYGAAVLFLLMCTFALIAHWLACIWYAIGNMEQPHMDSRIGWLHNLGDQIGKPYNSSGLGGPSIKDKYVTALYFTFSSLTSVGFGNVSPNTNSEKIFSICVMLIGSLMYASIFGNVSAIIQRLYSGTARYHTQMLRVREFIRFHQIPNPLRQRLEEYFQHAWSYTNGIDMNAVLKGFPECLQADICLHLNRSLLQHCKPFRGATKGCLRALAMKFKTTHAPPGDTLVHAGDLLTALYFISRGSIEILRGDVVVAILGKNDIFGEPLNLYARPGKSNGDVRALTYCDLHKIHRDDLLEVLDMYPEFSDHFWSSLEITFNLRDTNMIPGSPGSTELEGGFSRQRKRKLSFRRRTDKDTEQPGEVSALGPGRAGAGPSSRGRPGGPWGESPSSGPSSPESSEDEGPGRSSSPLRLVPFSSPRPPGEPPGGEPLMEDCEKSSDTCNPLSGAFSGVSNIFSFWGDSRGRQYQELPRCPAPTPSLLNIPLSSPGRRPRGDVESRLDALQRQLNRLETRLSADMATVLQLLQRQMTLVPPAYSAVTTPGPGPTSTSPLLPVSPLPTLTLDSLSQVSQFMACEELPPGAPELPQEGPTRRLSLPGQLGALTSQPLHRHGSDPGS
Regarding `COc1ccccc1OCCCn1c(C)c(C#N)c2ccccc21`, the “hERG current change (%, negative = inhibition) at 10uM” value is -2.85%.

In the case of `Cc1cc2c(cc1S(=O)(=O)N1CCOCC1)NC(=O)CO2`, the “hERG current change (%, negative = inhibition) at 10uM” value is 22%.

With `CC(=O)Nc1ccc(S(=O)(=O)C(C#N)c2nc3ccccc3nc2NCCN2CCOCC2)cc1` (stereo not drawn), the “hERG current change (%, negative = inhibition) at 10uM” value was 5.33%.

Regarding `Cc1ccccc1NC(=O)CSCC(=O)Nc1ccccc1C`, the “hERG current change (%, negative = inhibition) at 10uM” value is -9.46%.

As for `Cc1ccc(N2C(=O)C3C(C2=O)C(C(=O)c2ccc(Cl)cc2)N2CCCC32)cc1` (stereo not drawn), the “hERG current change (%, negative = inhibition) at 10uM” value came to 2.31%.

Turning to `COc1cc(/C=N/NC(=O)c2ccc(CN(C)S(=O)(=O)c3ccc(C)cc3)cc2)ccc1O`, the “hERG current change (%, negative = inhibition) at 10uM” value was 5.98%.

Regarding `Clc1nc2sccn2c1/C=N/n1cnc2ccccc21`, the “hERG current change (%, negative = inhibition) at 10uM” value was -10%.

Regarding `O=c1c2ccccc2[nH]c(=S)n1CCN1CCCCC1`, the “hERG current change (%, negative = inhibition) at 10uM” value is given as -1.11%.

On to `Cc1ccc(C(C(=O)NCC2CCCO2)N(C(=O)c2snc(C(N)=O)c2N)c2ccc(F)cc2)o1` (stereo not drawn), for which the “hERG current change (%, negative = inhibition) at 10uM” value turned out to be 8.46%.

On to `Cc1cccc(C)c1N=C1SC(CC(=O)Nc2c(C)cccc2C)C(=O)N1CCc1ccccn1` (stereo not drawn), for which the “hERG current change (%, negative = inhibition) at 10uM” value is reported as -1.86%.

As to `CCCC(=O)Nc1nc(CC(=O)OCC)cs1`, the “hERG current change (%, negative = inhibition) at 10uM” value is recorded as 9.54%.

For `CCOC(=O)N1CCN(C(=S)NC2CCCC2)CC1`, the “hERG current change (%, negative = inhibition) at 10uM” value is given as -28.2%.

With `N#CCSc1ncnc2c1cnn2CCO`, the “hERG current change (%, negative = inhibition) at 10uM” value stood at 23.9%.

Regarding `COc1ccc(C(=O)NC(=S)Nc2ccc(S(N)(=O)=O)cc2)cc1`, the “hERG current change (%, negative = inhibition) at 10uM” value was found to be 12%.

For `CCc1ccc(OCC(=O)OCC(=O)c2c(N)n(C)c(=O)n(C)c2=O)cc1`, the “hERG current change (%, negative = inhibition) at 10uM” value came to 10.2%.

Turning to `CC(C)(C)c1cc(CCC(=O)N2CCCC2)cc(C(C)(C)C)c1O`, the “hERG current change (%, negative = inhibition) at 10uM” value is given as -0.681%.

In the case of `CCOC(=O)C1(CCOc2ccccc2)CCN(Cc2ccc(OC)c(O)c2)CC1`, the “hERG current change (%, negative = inhibition) at 10uM” value is given as -82.2%.

As for `O=C(CC(=O)N/N=C\c1ccc([N+](=O)[O-])cc1)NCCc1ccccc1`, the “hERG current change (%, negative = inhibition) at 10uM” value is listed as -16.5%.

`CCOc1ccc(NC(=O)CN(C)CC(=O)Nc2cccc(Cl)c2C)cc1OCC`: the “hERG current change (%, negative = inhibition) at 10uM” value is recorded as -10.4%.

On to `Oc1ccc(N2CCN(C(=S)NCc3ccccc3)CC2)cc1`, for which the “hERG current change (%, negative = inhibition) at 10uM” value came out at 11.3%.

For `O=c1c2c(nc3nc(NCc4ccccc4Cl)[nH]n13)CCC2`, the “hERG current change (%, negative = inhibition) at 10uM” value is recorded as 24.8%.

Take `Cc1nnc2sc(-c3ccco3)nn12`: the “hERG current change (%, negative = inhibition) at 10uM” value came out at 14.9%.

In the case of `Cc1ccccc1CNC(=O)C1CCC(=O)N(C2CCCCCC2)C1` (stereo not drawn), the “hERG current change (%, negative = inhibition) at 10uM” value came to 3.69%.

In the case of `Fc1ccc(-c2ccc(Nc3cccc(F)c3)nn2)cc1`, the “hERG current change (%, negative = inhibition) at 10uM” value turned out to be 21.3%.

Turning to `COc1ccc(-c2nc(CS(=O)CC(=O)NCCc3ccc(OC)c(OC)c3)c(C)o2)cc1` (stereo not drawn), the “hERG current change (%, negative = inhibition) at 10uM” value is -2.18%.

As for `CC(C)N(Cc1nccn1C)C(=O)c1ccc2oc(CCCc3ccccc3)nc2c1`, the “hERG current change (%, negative = inhibition) at 10uM” value is -41.6%.

As for `O=C(COC(=O)/C=C/c1ccccc1Cl)NC(=O)Cc1ccccc1`, the “hERG current change (%, negative = inhibition) at 10uM” value came to 11.2%.

As to `Cc1ccc(C(=O)COC(=O)CNC(=O)COc2ccccc2C)cc1C`, the “hERG current change (%, negative = inhibition) at 10uM” value is 9.34%.

In the case of `Cl.OC1(c2ccc(F)cc2)CCNC1` (stereo not drawn), the “hERG current change (%, negative = inhibition) at 10uM” value came to 15.8%.

As to `N#CC1(c2ccccc2)CCCN1C(=O)c1ccccc1Cl` (stereo not drawn), the “hERG current change (%, negative = inhibition) at 10uM” value stood at 5.5%.

On to `CC1CCC(N2CCN(S(=O)(=O)Cc3ccccc3)CC2)CC1` (stereo not drawn), for which the “hERG current change (%, negative = inhibition) at 10uM” value is -4.22%.

Turning to `Cc1onc(-c2ccccc2Cl)c1C(=O)Oc1cccc2cccnc12`, the “hERG current change (%, negative = inhibition) at 10uM” value worked out at 9.99%.

`CC1(C)C(CC2OCC(CN3CCCCC3)O2)[C@H]2CC[C@@H]1C2` (stereo partly drawn): the “hERG current change (%, negative = inhibition) at 10uM” value is -0.439%.

Turning to `COc1ccc(CCNC(=O)c2ccc3c(c2)N(Cc2ccc(C)cc2)CCS3)cc1OC`, the “hERG current change (%, negative = inhibition) at 10uM” value is 8.07%.

In the case of `O=C(O)Cn1cc(/C=N/Nc2ccc([N+](=O)[O-])cn2)c2ccccc21`, the “hERG current change (%, negative = inhibition) at 10uM” value is recorded as 23.9%.

On to `CC(C)n1c(O)c(N=Nc2ccc(Cl)nn2)c2ccccc21`, for which the “hERG current change (%, negative = inhibition) at 10uM” value came out at 3.18%.

Turning to `Cn1c(=O)c2c(nc(SCC(=O)Nc3ccccc3)n2C)n(C)c1=O`, the “hERG current change (%, negative = inhibition) at 10uM” value is -4.52%.

On to `COc1ccc(NC(=O)c2cnc(SCC(=O)NCCc3ccccc3)n(C)c2=O)cc1`, for which the “hERG current change (%, negative = inhibition) at 10uM” value was determined as 13%.

Regarding `CC(NCc1ccccc1Cl)C(=O)Nc1ccc(C#N)cc1` (stereo not drawn), the “hERG current change (%, negative = inhibition) at 10uM” value is recorded as -32.3%.

For the molecule `COc1ccccc1N1CCN(C(=O)c2cc(-c3ccc4c(c3)OCO4)on2)CC1`, the “hERG current change (%, negative = inhibition) at 10uM” value is listed as 1.5%.

`Cc1cc(C=O)c(C)n1-c1ccc(N2CCOCC2)c([N+](=O)[O-])c1`: the “hERG current change (%, negative = inhibition) at 10uM” value was -1.07%.

Regarding `COc1cccc(CNS(=O)(=O)c2ccc3c(c2)CC(C)N3C(C)=O)c1` (stereo not drawn), the “hERG current change (%, negative = inhibition) at 10uM” value was -3.24%.

Consider `CC(=O)NC(CC(=O)NCCc1ccccc1)c1ccccc1` (stereo not drawn), for which the “hERG current change (%, negative = inhibition) at 10uM” value stood at 4.67%.

As for `Cc1cc(C(C)(C)C)oc1C(=O)NCCCNC(=O)c1oc(C(C)(C)C)cc1C`, the “hERG current change (%, negative = inhibition) at 10uM” value is 3.46%.

As for `Cc1ccc(S(=O)(=O)N2CCN(CC(=O)NC3CCCc4ccccc43)CC2)cc1C.O=C(O)C(=O)O` (stereo not drawn), the “hERG current change (%, negative = inhibition) at 10uM” value is listed as -20.5%.
